Reference: PMC9911399, “Two distinct binding modes provide the RNA-binding protein RbFox with extraordinary sequence specificity”
Changes are numbered by the printed parent chain; changes in the protein carry UniProt numbers. The list shows a part of the results.

B1: UUGUUCG (DNA:RNA)
RNA: GGGAGACCGGAAUUCAGAUUGUCCUUGUUCGUUAAAUCCCGUCGUAGCCACCA
DNA 1: CAATCTGAATTCCGGTCTCCC
DNA 2: TGGTGGCTACGACGGGATT
B2: UCAAAGA (DNA:RNA)
RNA: B1 RNA with U26C, G27A, U28A, U29A, C30G, G31A
DNA 1: CAATCTGAATTCCGGTCTCCC
DNA 2: TGGTGGCTACGACGGGATT
B3: GAGCGUA (DNA:RNA)
RNA: B1 RNA with U25G, U26A, U28C, U29G, C30U, G31A
DNA 1: CAATCTGAATTCCGGTCTCCC
DNA 2: TGGTGGCTACGACGGGATT
B4: UAAUGGG (DNA:RNA)
RNA: B1 RNA with U26A, G27A, U29G, C30G
DNA 1: CAATCTGAATTCCGGTCTCCC
DNA 2: TGGTGGCTACGACGGGATT
B5: CUGAAAG (DNA:RNA)
RNA: B1 RNA with U25C, U28A, U29A, C30A
DNA 1: CAATCTGAATTCCGGTCTCCC
DNA 2: TGGTGGCTACGACGGGATT
B6: UGCACCU (DNA:RNA)
RNA: B1 RNA with U26G, G27C, U28A, U29C, G31U
DNA 1: CAATCTGAATTCCGGTCTCCC
DNA 2: TGGTGGCTACGACGGGATT
B7: GACGAGC (DNA:RNA)
RNA: GGGAGACCGGAAUUCAGAUUGUCCGACGAGCUUAAAUCCCGUCGUAGCCACCA
DNA 1: CAATCTGAATTCCGGTCTCCC
DNA 2: TGGTGGCTACGACGGGATT
B8: GUUCCGC (DNA:RNA)
RNA: B7 RNA with A26U, C27U, G28C, A29C
DNA 1: CAATCTGAATTCCGGTCTCCC
DNA 2: TGGTGGCTACGACGGGATT
B9: CUUCGAG (DNA:RNA)
RNA: B1 RNA with U25C, G27U, U28C, U29G, C30A
DNA 1: CAATCTGAATTCCGGTCTCCC
DNA 2: TGGTGGCTACGACGGGATT
B10: CGCCGUG (DNA:RNA)
RNA: B7 RNA with G25C, A26G, G28C, A29G, G30U, C31G
DNA 1: CAATCTGAATTCCGGTCTCCC
DNA 2: TGGTGGCTACGACGGGATT
B11: UCGCCUU (DNA:RNA)
RNA: B1 RNA with U26C, U28C, U29C, C30U, G31U
DNA 1: CAATCTGAATTCCGGTCTCCC
DNA 2: TGGTGGCTACGACGGGATT
B12: AAUUCCG (DNA:RNA)
RNA: B1 RNA with U25A, U26A, G27U, U29C
DNA 1: CAATCTGAATTCCGGTCTCCC
DNA 2: TGGTGGCTACGACGGGATT
B13: CUCCGCU (DNA:RNA)
RNA: B1 RNA with U25C, G27C, U28C, U29G, G31U
DNA 1: CAATCTGAATTCCGGTCTCCC
DNA 2: TGGTGGCTACGACGGGATT
B14: CUGAACG (DNA:RNA)
RNA: B1 RNA with U25C, U28A, U29A
DNA 1: CAATCTGAATTCCGGTCTCCC
DNA 2: TGGTGGCTACGACGGGATT
B15: UGAAAAC (DNA:RNA)
RNA: B7 RNA with G25U, A26G, C27A, G28A, G30A
DNA 1: CAATCTGAATTCCGGTCTCCC
DNA 2: TGGTGGCTACGACGGGATT
B16: GAACACG (DNA:RNA)
RNA: B7 RNA with C27A, G28C, G30C, C31G
DNA 1: CAATCTGAATTCCGGTCTCCC
DNA 2: TGGTGGCTACGACGGGATT
B17: GUAUUAC (DNA:RNA)
RNA: B1 RNA with U25G, G27A, C30A, G31C
DNA 1: CAATCTGAATTCCGGTCTCCC
DNA 2: TGGTGGCTACGACGGGATT
B18: CACAUAU (DNA:RNA)
RNA: B7 RNA with G25C, G28A, A29U, G30A, C31U
DNA 1: CAATCTGAATTCCGGTCTCCC
DNA 2: TGGTGGCTACGACGGGATT
B19: UCAGUGG (DNA:RNA)
RNA: B1 RNA with U26C, G27A, U28G, C30G
DNA 1: CAATCTGAATTCCGGTCTCCC
DNA 2: TGGTGGCTACGACGGGATT
B20: UGAGCAU (DNA:RNA)
RNA: B7 RNA with G25U, A26G, C27A, A29C, G30A, C31U
DNA 1: CAATCTGAATTCCGGTCTCCC
DNA 2: TGGTGGCTACGACGGGATT
B21: CUUUGAA (DNA:RNA)
RNA: B1 RNA with U25C, G27U, U29G, C30A, G31A
DNA 1: CAATCTGAATTCCGGTCTCCC
DNA 2: TGGTGGCTACGACGGGATT
B22: AUCUUCA (DNA:RNA)
RNA: B1 RNA with U25A, G27C, G31A
DNA 1: CAATCTGAATTCCGGTCTCCC
DNA 2: TGGTGGCTACGACGGGATT
B23: UGCUGAG (DNA:RNA)
RNA: B1 RNA with U26G, G27C, U29G, C30A
DNA 1: CAATCTGAATTCCGGTCTCCC
DNA 2: TGGTGGCTACGACGGGATT
B24: CAAGCCG (DNA:RNA)
RNA: B7 RNA with G25C, C27A, A29C, G30C, C31G
DNA 1: CAATCTGAATTCCGGTCTCCC
DNA 2: TGGTGGCTACGACGGGATT
B25: UAGGCAC (DNA:RNA)
RNA: B7 RNA with G25U, C27G, A29C, G30A
DNA 1: CAATCTGAATTCCGGTCTCCC
DNA 2: TGGTGGCTACGACGGGATT
B26: AUCUUGA (DNA:RNA)
RNA: B1 RNA with U25A, G27C, C30G, G31A
DNA 1: CAATCTGAATTCCGGTCTCCC
DNA 2: TGGTGGCTACGACGGGATT
B27: GCGUUAA (DNA:RNA)
RNA: B1 RNA with U25G, U26C, C30A, G31A
DNA 1: CAATCTGAATTCCGGTCTCCC
DNA 2: TGGTGGCTACGACGGGATT
B28: CGAGAAU (DNA:RNA)
RNA: B7 RNA with G25C, A26G, C27A, G30A, C31U
DNA 1: CAATCTGAATTCCGGTCTCCC
DNA 2: TGGTGGCTACGACGGGATT
B29: CUCGUGC (DNA:RNA)
RNA: B7 RNA with G25C, A26U, A29U
DNA 1: CAATCTGAATTCCGGTCTCCC
DNA 2: TGGTGGCTACGACGGGATT
B30: CACGACU (DNA:RNA)
RNA: B7 RNA with G25C, G30C, C31U
DNA 1: CAATCTGAATTCCGGTCTCCC
DNA 2: TGGTGGCTACGACGGGATT
B31: AUGCUUU (DNA:RNA)
RNA: B1 RNA with U25A, U28C, C30U, G31U
DNA 1: CAATCTGAATTCCGGTCTCCC
DNA 2: TGGTGGCTACGACGGGATT

molecular target: T1, RBFOX1 RRM (Homo sapiens, UniProt Q9NWB1 109-208); experiment: EMSA; HiTS-Eq, 1 nM pool, 10 min; buffer printed only for the single-RNA assays: 10 mM Tris pH 7.5, 150 mM NaCl, 3.4 mM EDTA, 0.001% NP-40, 30 C; settings: tags: His6 N-terminal (pET28a); label: 5' 32P
T1 sequence: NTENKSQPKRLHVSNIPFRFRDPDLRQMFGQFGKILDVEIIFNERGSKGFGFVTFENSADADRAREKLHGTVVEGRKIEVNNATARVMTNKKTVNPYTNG
Summary of the method: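 Purified wild-type or mutant RbFox RRM at increasing concentrations was equilibrated with 1 nM of 5′-radiolabelled RNA carrying 7 randomized nucleotides for 10 min in 50 µL. Unbound RNA was separated by 8% native PAGE and sequenced. Relative association constants came from read-count changes of each RNA species compared with the control reaction, normalised to the cognate motif.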

Row | Binder | binding signal
1 | B1 | 0.0364 KA relative to UGCAUGU
2 | B2 | 0.00287 KA relative to UGCAUGU
3 | B3 | 0.0119 KA relative to UGCAUGU
4 | B4 | 0.00307 KA relative to UGCAUGU
5 | B5 | 0.0153 KA relative to UGCAUGU
6 | B6 | 0.0129 KA relative to UGCAUGU
7 | B7 | 0.0192 KA relative to UGCAUGU
8 | B8 | 0.0197 KA relative to UGCAUGU
9 | B9 | 0.011 KA relative to UGCAUGU
10 | B10 | 0.0115 KA relative to UGCAUGU
11 | B11 | 0.0126 KA relative to UGCAUGU
12 | B12 | 0.00338 KA relative to UGCAUGU
13 | B13 | 0.00787 KA relative to UGCAUGU
14 | B14 | 0.0193 KA relative to UGCAUGU
15 | B15 | 0.00541 KA relative to UGCAUGU
16 | B16 | 0.00645 KA relative to UGCAUGU

Row | Binder | binding signal
17 | B17 | 0.0036 KA relative to UGCAUGU
18 | B18 | 0.000934 KA relative to UGCAUGU
19 | B19 | 0.0121 KA relative to UGCAUGU
20 | B20 | 0.0172 KA relative to UGCAUGU
21 | B21 | 0.0159 KA relative to UGCAUGU
22 | B22 | 0.0037 KA relative to UGCAUGU
23 | B23 | 0.0319 KA relative to UGCAUGU
24 | B24 | 0.00258 KA relative to UGCAUGU
25 | B25 | 0.0119 KA relative to UGCAUGU
26 | B26 | 0.012 KA relative to UGCAUGU
27 | B27 | 0.00728 KA relative to UGCAUGU
28 | B28 | 0.0105 KA relative to UGCAUGU
29 | B29 | 0.0159 KA relative to UGCAUGU
30 | B30 | 0.00136 KA relative to UGCAUGU
31 | B31 | 0.0125 KA relative to UGCAUGU
